# The list shows a part of the results.
# Legend:
# Assay in all cases: glycan array binding signal (z-score within array); higher = stronger binding
# Conditions in all cases: glycan notation: IUPAC condensed, linker removed
# [1] = target: Man(a1-3)[Man(a1-6)]Man(b1-4)GlcNAc(b1-4)GlcNAc
# In short: (§1)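 Arrays were curated from the Consortium for Functional Glycomics database, 3228 in total, and kept only where the protein sequence was available. Binding is expressed as a within-array Z-score. This score was averaged across arrays of the same protein sequence at different concentrations or buffers and across linkers, and negative values can be read as non-binding.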
# [2] = target: Man(a1-6)Man
# In short: as §1
# [3] = target: Man(b1-4)GlcNAc
# In short: as §1
# [4] = target: Neu5Ac(a2-3)Gal
# In short: as §1
# [5] = target: Neu5Ac(a2-3)Gal(b1-3)GalNAc
# In short: as §1
# [6] = target: Neu5Ac(a2-3)Gal(b1-3)GalNAc(b1-3)Gal(a1-4)Gal(b1-4)Glc
# In short: as §1
# [7] = target: Neu5Ac(a2-3)Gal(b1-3)GalNAc(b1-3)Gal(b1-4)GlcNAc
# In short: as §1
# [8] = target: Neu5Ac(a2-3)Gal(b1-3)GalNAc(b1-4)[Neu5Ac(a2-3)]Gal(b1-4)Glc
# In short: as §1
# [9] = target: Neu5Ac(a2-3)Gal(b1-3)GalNAc6S
# In short: as §1
# [10] = target: Neu5Ac(a2-3)Gal(b1-3)GlcNAc
# In short: as §1
# [11] = target: Neu5Ac(a2-3)Gal(b1-3)GlcNAc(b1-3)Gal(b1-3)GlcNAc
# In short: as §1
# [12] = target: Neu5Ac(a2-3)Gal(b1-3)GlcNAc6S
# In short: as §1
# [13] = target: Neu5Ac(a2-3)Gal(b1-3)[Fuc(a1-4)]GlcNAc
# In short: as §1
# [14] = target: Neu5Ac(a2-3)Gal(b1-3)[Fuc(a1-4)]GlcNAc(b1-3)Gal(b1-3)[Fuc(a1-4)]GlcNAc
# In short: as §1
# [15] = target: Neu5Ac(a2-3)Gal(b1-3)[Fuc(a1-4)]GlcNAc(b1-3)Gal(b1-4)[Fuc(a1-3)]GlcNAc
# In short: as §1
# [16] = target: Neu5Ac(a2-3)Gal(b1-3)[Neu5Ac(a2-3)Gal(b1-4)]GlcNAc
# In short: as §1
# [17] = target: Neu5Ac(a2-3)Gal(b1-3)[Neu5Ac(a2-6)]GalNAc
# In short: as §1
# [18] = target: Neu5Ac(a2-3)Gal(b1-4)Glc
# In short: as §1
# [19] = target: Neu5Ac(a2-3)Gal(b1-4)GlcNAc
# In short: as §1
# [20] = target: Neu5Ac(a2-3)Gal(b1-4)GlcNAc(b1-2)Man(a1-3)[GlcNAc(b1-2)Man(b1-4)GlcNAc(b1-2)Man(a1-6)]Man(b1-4)GlcNAc(b1-4)GlcNAc
# In short: as §1
# [21] = target: Neu5Ac(a2-3)Gal(b1-4)GlcNAc(b1-2)Man(a1-3)[Neu5Ac(a2-6)Gal(b1-4)GlcNAc(b1-2)Man(a1-6)]Man(b1-4)GlcNAc(b1-4)GlcNAc
# In short: as §1
# [22] = target: Neu5Ac(a2-3)Gal(b1-4)GlcNAc(b1-3)Gal(b1-3)GlcNAc
# In short: as §1
# [23] = target: Neu5Ac(a2-3)Gal(b1-4)GlcNAc(b1-3)Gal(b1-4)GlcNAc
# In short: as §1
# [24] = target: Neu5Ac(a2-3)Gal(b1-4)GlcNAc(b1-3)Gal(b1-4)GlcNAc(b1-3)Gal(b1-4)GlcNAc
# In short: as §1
# [25] = target: Neu5Ac(a2-3)Gal(b1-4)GlcNAc(b1-3)Gal(b1-4)[Fuc(a1-3)]GlcNAc
# In short: as §1
# [26] = target: Neu5Ac(a2-3)Gal(b1-4)GlcNAc(b1-3)GalNAc
# In short: as §1
# [27] = target: Neu5Ac(a2-3)Gal(b1-4)GlcNAc(b1-6)[Gal(b1-3)]GalNAc
# In short: as §1
# [28] = target: Neu5Ac(a2-3)Gal(b1-4)GlcNAc(b1-6)[Neu5Ac(a2-3)Gal(b1-3)]GalNAc
# In short: as §1
# [29] = target: Neu5Ac(a2-3)Gal(b1-4)GlcNAc6S
# In short: as §1
# [30] = target: Neu5Ac(a2-3)Gal(b1-4)[Fuc(a1-3)]GlcNAc
# In short: as §1
# [31] = target: Neu5Ac(a2-3)Gal(b1-4)[Fuc(a1-3)]GlcNAc(b1-3)Gal
# In short: as §1
# [32] = target: Neu5Ac(a2-3)Gal(b1-4)[Fuc(a1-3)]GlcNAc(b1-3)Gal(b1-4)GlcNAc
# In short: as §1
# [33] = target: Neu5Ac(a2-3)Gal(b1-4)[Fuc(a1-3)]GlcNAc(b1-3)Gal(b1-4)[Fuc(a1-3)]GlcNAc(b1-3)Gal(b1-4)[Fuc(a1-3)]GlcNAc
# In short: as §1
# [34] = target: Neu5Ac(a2-3)Gal(b1-4)[Fuc(a1-3)]GlcNAc(b1-3)GalNAc
# In short: as §1
# [35] = target: Neu5Ac(a2-3)Gal(b1-4)[Fuc(a1-3)]GlcNAc(b1-6)[Gal(b1-3)]GalNAc
# In short: as §1
# [36] = target: Neu5Ac(a2-3)Gal(b1-4)[Fuc(a1-3)]GlcNAc(b1-6)[Neu5Ac(a2-3)Gal(b1-3)]GalNAc
# In short: as §1
# [37] = target: Neu5Ac(a2-3)Gal(b1-4)[Fuc(a1-3)]GlcNAc6S
# In short: as §1
# [38] = target: Neu5Ac(a2-3)Gal6S(b1-4)GlcNAc
# In short: as §1
# [39] = target: Neu5Ac(a2-3)Gal6S(b1-4)[Fuc(a1-3)]GlcNAc
# In short: as §1
# [40] = target: Neu5Ac(a2-3)GalNAc
# In short: as §1
# [41] = target: Neu5Ac(a2-3)GalNAc(b1-4)GlcNAc
# In short: as §1
# [42] = target: Neu5Ac(a2-3)[GalNAc(b1-4)]Gal(b1-4)Glc
# In short: as §1
# [43] = target: Neu5Ac(a2-3)[GalNAc(b1-4)]Gal(b1-4)GlcNAc
# In short: as §1
binder,measurement,setting,value
"GIINTLQKYYCRVRGGRCAVLSCLPKEEQIGKCSTRGRKCCRRKK [Beta-Defensin 3 (Homo sapiens), P81534]",glycan array binding signal (z-score),[1],-0.327
same,glycan array binding signal (z-score),[2],-0.288
same,glycan array binding signal (z-score),[3],-0.333
same,glycan array binding signal (z-score),[4],0.489
same,glycan array binding signal (z-score),[5],-0.221
same,glycan array binding signal (z-score),[6],-0.407
same,glycan array binding signal (z-score),[7],-0.523
same,glycan array binding signal (z-score),[8],-0.555
same,glycan array binding signal (z-score),[9],1.18
same,glycan array binding signal (z-score),[10],-0.304
same,glycan array binding signal (z-score),[11],-0.563
same,glycan array binding signal (z-score),[12],-0.526
same,glycan array binding signal (z-score),[13],-0.248
same,glycan array binding signal (z-score),[14],-0.364
same,glycan array binding signal (z-score),[15],-0.338
same,glycan array binding signal (z-score),[16],-0.604
same,glycan array binding signal (z-score),[17],-0.172
same,glycan array binding signal (z-score),[18],-0.426
same,glycan array binding signal (z-score),[19],-0.401
same,glycan array binding signal (z-score),[20],-0.608
same,glycan array binding signal (z-score),[21],-0.484
same,glycan array binding signal (z-score),[22],-0.501
same,glycan array binding signal (z-score),[23],-0.613
same,glycan array binding signal (z-score),[24],-0.664
same,glycan array binding signal (z-score),[25],-0.41
same,glycan array binding signal (z-score),[26],0.284
same,glycan array binding signal (z-score),[27],-0.341
same,glycan array binding signal (z-score),[28],-0.519
same,glycan array binding signal (z-score),[29],-0.781
same,glycan array binding signal (z-score),[30],-0.519
same,glycan array binding signal (z-score),[31],-0.497
same,glycan array binding signal (z-score),[32],-0.408
same,glycan array binding signal (z-score),[33],-0.613
same,glycan array binding signal (z-score),[34],0.787
same,glycan array binding signal (z-score),[35],-0.458
same,glycan array binding signal (z-score),[36],0.056
same,glycan array binding signal (z-score),[37],-0.797
same,glycan array binding signal (z-score),[38],-0.196
same,glycan array binding signal (z-score),[39],1.68
same,glycan array binding signal (z-score),[40],-0.526
same,glycan array binding signal (z-score),[41],-0.402
same,glycan array binding signal (z-score),[42],-0.361
same,glycan array binding signal (z-score),[43],-0.338

# Reference: the supplement of paper PMC8728848
